# Reference: the supplement of paper PMC5499739
# Over roughly 16,000 sequences, “Z-score” has its median near -0.37; the highest 2% begin near 3.1. This is one part of the list.
# System: RBM10 RRM1-ZnF-RRM2 (GST-tagged construct)
# Test: RNAcompete 7-mer binding Z-score; higher = stronger binding preference
# Summary of the method: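 Each heptamer motif was given a one-sided Z-score for enrichment across the probes that contained it. GST-tagged RBM10 constructs (20 pmol) were combined with 1.5 nmol of a designed pool of 241 399 RNAs of up to 41 nt, transcribed from microarray-derived DNA templates. Binding took place in 1 ml Hepes pH 7.8 buffer containing KCl, NaCl, glycerol, DTT, BSA and glutathione Sepharose beads for 30 min at 4°C. After four 2-min washes at 4°C, bound RNA was identified by microarray hybridisation.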
row,Sequence,RNAcompete 7-mer binding Z-score
1,UACCACG,-0.173
2,GCCCAAU,-0.708
3,UUGGAAG,1.47
4,AUCGAGU,-0.0306
5,GUGCGAG,1.67
6,AGAUGGU,1.63
7,AGGAGAG,2.2
8,CCCAUAU,-0.777
9,CCUGCCC,-0.701
10,GACAGAG,0.84
11,ACUAUCU,-0.77
12,AACAUAU,-0.551
13,AUGACGU,-0.198
14,AUAGCUA,-0.38
15,UGUAGUU,-0.191
16,ACUAAUA,-0.584
17,CCAGGAA,0.647
18,CGGAGCC,0.108
19,ACUGGUU,-0.118
20,CCAACGU,-0.53
21,AAAGCGC,-0.136
22,CCUAUUA,-0.912
23,CGCAUCU,-0.803

row,Sequence,RNAcompete 7-mer binding Z-score
1,AGUCUAA,-0.406
2,GGCUGUG,0.825
3,AGCCCUU,-0.883
4,GUUAGAA,0.734
5,CCUUAAG,-0.766
6,UAUCUAG,-0.464
7,AAUCAAC,-0.398
8,UCGUAUG,-0.122
9,GAAAGUC,-0.0962
10,GGCGCCU,-0.388
11,UGAUAUU,-0.621
12,GCGGAAA,1.47
13,UAGGCGU,1.16
14,GUGUUUC,-0.0816
15,ACACGAG,0.199
16,UUUGAGA,-0.147
17,CGGCUUC,-0.697
18,UUGUCUC,-0.865
19,UUUAAAG,-0.395
20,UUAUGCC,-0.879
21,GCAUGUU,-0.26
22,GUCCCAA,-0.581
23,CUGAUAA,-0.566

row,Sequence,RNAcompete 7-mer binding Z-score
1,CCUUCGG,-0.606
2,UACGUGU,-0.304
3,CUAGUGU,-0.511
4,AUAAUGA,-0.0598
5,ACUCUUG,-0.785
6,UUCUUGU,-0.821
7,AUCAUUA,-0.409
8,AGGAUGC,0.887
9,UUAGGGA,2.36
10,CUAGGUC,-0.289
11,UGGACUU,-0.147
12,UCGUUCC,-0.715
13,CAAGGCU,-0.067
14,GUUGGUU,0.45
15,ACGCUAU,-0.555
16,ACGACUC,-0.817
17,CGACCUG,-0.814
18,GCUGGAG,0.829
19,GCCAAGU,-0.519
20,GUUCGGC,-0.111
21,CGCACAA,-0.628
22,AGAUCAA,-0.333
23,ACUGAUC,-0.77

row,Sequence,RNAcompete 7-mer binding Z-score
1,AUGAACA,0.505
2,GCCAAUG,0.228
3,GUAGUUC,-0.22
4,UGGGCUG,1.59
5,AGCGCCC,-0.646
6,GUCGAUC,-0.267
7,CUGCACC,-0.581
8,ACACUGG,0.224
9,UAUACAU,-0.464
10,CCCAUCU,-0.861
11,AUGAGUU,0.13
12,AGACAAG,0.603
13,CCUAAAU,-0.825
14,AGGCAAG,1.55
15,UAAAUUA,-0.497
16,AAGCAGC,0.0969
17,ACAUCCC,-0.515
18,ACGCGCC,-0.635
19,UAUGGUA,1.32
20,GUACGCG,0.545
21,GCAGGCC,0.0131
22,GGCACGG,1.74
23,CUUUCAU,-0.854

row,Sequence,RNAcompete 7-mer binding Z-score
1,UCAAUAG,0.104
2,ACACCAC,-0.395
3,UUAGUGG,1.34
4,AGGCCCC,-0.726
5,ACUACGG,0.355
6,CUAUCCG,-0.865
7,GCCAGUG,0.235
8,UAAGCUG,-0.362
9,UUAGCCG,-0.748
10,UGUCGUA,-0.202
11,AUCCGAA,-0.537
12,CGAAAAG,0.323
13,UCUUUGU,-0.792
14,GACGGAG,2.01
15,CACCCAG,-0.639
16,UGACUUG,-0.679
17,CCAUGAU,-0.573
18,UCUUGUC,-0.81
19,UCUUGCC,-1.08
20,CCUCCCU,-0.661
21,ACAGUUC,-0.672
22,GGACAGG,3.23
23,UGACCCC,-0.428

row,Sequence,RNAcompete 7-mer binding Z-score
1,CCACGAU,-0.803
2,UACGCUG,-0.195
3,UCGAGCG,-0.0925
4,GUUUAAU,-0.471
5,CUGGGUU,1.11
6,CACAAGU,-0.497
7,GCAAAUA,-0.242
8,CAUACUC,-0.795
9,AAUGCCG,-0.398
10,GGGAAGC,3
11,UGUUAUU,-0.763
12,AAUCCCC,-0.715
13,CAGUGAA,0.479
14,GUAGAGC,0.701
15,AUCCUGA,-0.697
16,UGUUGGC,-0.198
17,UUAUAUG,-0.322
18,ACGAAUU,-0.271
19,GGUCCUG,0.235
20,AGCGGUG,1.4
21,UCCUAUG,-0.799
22,GGAAAGU,1.84
23,UAGAAAC,-0.00148

row,Sequence,RNAcompete 7-mer binding Z-score
1,ACCUAGC,-0.712
2,AGCACUG,-0.107
3,AAUAUGA,0.144
4,AACCAGC,-0.573
5,UGAAGGC,1.21
6,AUUAUAG,0.0422
7,CAACUCA,-0.719
8,UGUCGGC,-0.391
9,CACAGGC,0.355
10,CCCAGGA,-0.26
11,ACGCGUU,-0.464
12,GCCUCCU,-0.832
13,AGUACAG,0.752
14,CGUCAUA,-0.519
15,GUACUCC,-0.577
16,GAUGUAC,-0.0379
17,AUGUGUG,0.884
18,AAGGAGG,4.62
19,UUUCUUA,-0.734
20,CCGUCGC,-0.752
21,GCCUCCA,-0.643
22,CAAGUAC,-0.551
23,GCGCGUU,-0.453

row,Sequence,RNAcompete 7-mer binding Z-score
1,UAGGACA,1.74
2,CACAAGA,-0.391
3,ACCGAUG,-0.267
4,CUUUAGA,-0.766
5,GCCUGAA,-0.613
6,AGAGCUG,-0.0161
7,GUGGGGG,4.18
8,UUAGUCU,-0.61
9,UCGUAUC,-0.457
10,CUACCGU,-0.708
11,GAGCGCC,-0.53
12,GUUUCCA,-0.377
13,UUAACGU,-0.3
14,AGACAAC,-0.526
15,CCUCUAU,-0.901
16,CAGGGUU,2.05
17,AACGACC,-0.486
18,UCGUAGA,-0.3
19,GAGACUG,-0.122
20,AACGGGC,2.33
21,UAUGCCG,-0.752
22,GCAUCGC,-0.431
